# According to patent publication US9353185B2, “Antibodies” (Affitech Research AS, priority 2010, dated 2016):
# B1: C-1I24: human anti-CXCR4 antibody; scFv SEQ ID NO: 57; IgG1/lambda heavy chain SEQ ID NO: 116, light chain SEQ ID NO: 117 (antibody)
# heavy: QVQLVQSGGGVVQPGRSLRLSCAASGFTFSSYGMHWVRQAPGKGLEWVAVISYDGSNKYYADSVKGRFTISRDNSKNTLYLQMNSLRAEDTAVYYCAKDLPITRGTGADYWGQGTLVTVSS[human IgG1 constant region left out]
# light: QSVLIQPASVSGSPGQSITISCTGTSSDVGGYNYVSWYQQHPGKAPRLMIYDVTSRPSGVSNRFSGSKSGNTASLTISGLQAEDEADYYCSSYAGSYSVVFGGGTKVTVLGQPKAAPSVTLFPPSSEELQANKATLVCLISDFYPGAVTVAWKADSSPVKAGVETTTPSKQSNNKYAASSYLSLTPEQWKSHRSYSCQVTHEGSTVEKTVAPTECS
# modifications: antibody sequence
# Target: T1, CXCR4 (Homo sapiens, UniProt P61073)
# T1 construct: CRL-1596 (Ramos); host or cells: Ramos, Jurkat 6E-1, CCRF-CEM
# T1 sequence (P61073 whole entry): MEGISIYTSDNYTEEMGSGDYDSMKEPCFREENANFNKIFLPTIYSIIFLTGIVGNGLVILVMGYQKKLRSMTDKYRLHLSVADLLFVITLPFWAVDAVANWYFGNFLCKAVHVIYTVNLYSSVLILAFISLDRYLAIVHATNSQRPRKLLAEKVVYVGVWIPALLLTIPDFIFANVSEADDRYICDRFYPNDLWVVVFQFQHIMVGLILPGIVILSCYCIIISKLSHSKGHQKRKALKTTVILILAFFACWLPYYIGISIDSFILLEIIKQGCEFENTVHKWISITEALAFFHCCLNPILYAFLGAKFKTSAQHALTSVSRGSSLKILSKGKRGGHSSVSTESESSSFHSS
# Test: Interference with ligand binding: scFv binding to Jurkat and Ramos cells without and with SDF-1α or AMD3100
# Conditions: transfected and naturally CXCR4 expressing cells
# Description: One molecule is SDF-1, the natural ligand to CXCR4, the other one is AMD3100, a peptide derived highly specific competetive inhibitor to SDF-1α binding to CXCR4.
# Jurkat and Ramos cells were maintained as described above.
# The scFv clones were expressed in large scale and purified as monomer fraction by SEC fractionation. The natural CXCR4^+ expressing cell lines Jurkat and Ramos were harvested from the culture flasks, washed 2 times with PBS supplemented with 0.2% BSA and 0.09% NaN3 buffer and aliquoted at 1×10^5 cells per well into V-shaped 96-well plates (Greiner Bio-One, Frickenhausen, Germany). Cells were pelleted by centrifugation (400 g, 5 min) and then incubated for 60 min at 4° C. with 1 μg SDF-1α (PeproTech EC, London, UK) and 50 μl scFv diluted to 10 μg/ml in PBS supplemented with 0.2% BSA and 0.09% NaN3 buffer, both added at the same time to the cells. A sample without ligand or 157 μg AMD3100 served as control for the specificity of CXCR4 since AMD3100 only binds to this receptor. AMD3100 was added simultaneously with the scFv to the cells. […]
molecule,measurement,value
B1,binding to all cell types tested,excellent binding
